The results in this text go back to a collection of fitness landscapes (doi:10.1126/science.1257360).

B1: PhoQ; a variant is named by its letters at X, in order, P23837 (parent)
chain: MKKLLRLFFPLSLRVRFLLATAAVVLVLSLAYGMVALIGYSVSFDKTTFRLLRGESNLFYTLAKWENNKLHVELPENIDKQSPTMTLIYDENGQLLWAQRDVPWLMKMIQPDWLKSNGFHEIEADVNDTSLLLSGDHSIQQQLQEVREDDDDAEMTHSVAVNVYPATSRMPKLTIVVVDTIPVELKSSYMVWSWFIYVLSANLLLVIPLLWVAAWWSLRPIEALAKEVRELEEHNRELLNPATTRELTSLVRNLNRLLKSERERYDKYRTTLTDLTHSLKTPLXXLQXXLRSLRSEKMSVSDAEPVMLEQISRISQQIGYYLHRASMRGGTLLSRELHPVAPLLDNLTSALNKVYQRKGVNISLDISPEISFVGEQNDFVEVMGNVLDNACKYCLEFVEISARQTDEHLYIVVEDDGPGIPLSKREVIFDRGQRVDTLRPGQGVGLAVAREITEQYEGKIVAGESMLGGARMEVIFGRQHSAPKDE

The list shows a part of the results.

In the assay the parent is B1. Nature of the assay: enrichment ratio after two sorts for PhoP signalling (ratio (wild type AVST 3.29)); higher = more functional. The conditions noted are these: with PhoP (E. coli).
On to ANRV, for which the enrichment ratio was at most 0.25.
In the case of FRAR it was at most 0.25; in that of NNRP, at most 0.25.
On to VCIV, for which the enrichment ratio is at most 0.25.
As for DIQF, the enrichment ratio was at most 0.25.
In the case of NYVH it was at most 0.25; in that of VFRA, at most 0.25.
Consider TWCS, for which the enrichment ratio is at most 0.25.
As to ESCL, the enrichment ratio was at most 0.25.
On to TNMW, for which the enrichment ratio is at most 0.25.
The result for TYIA reads at most 0.25.
The result for YKDN reads at most 0.25; that for SFTY, at most 0.25; that for KQVK, at most 0.25.
Regarding LREE, the enrichment ratio was at most 0.25.
On to WKYS, for which the enrichment ratio is at most 0.25.
For the variant IYRT, the enrichment ratio was at most 0.25.
For MMPR, the enrichment ratio is at most 0.25.
As for AGDT, the enrichment ratio is at most 0.25.
The result for GMSI reads 1.75; that for PQRH, at most 0.25.
With VMMH, the enrichment ratio was at most 0.25.
For the variant VMPP, the enrichment ratio is at most 0.25.
The result for DEPH reads at most 0.25; that for FFHK, at most 0.25.
Turning to DEHY, the enrichment ratio was at most 0.25.
In the case of KRSF it was at most 0.25.
The result for VYCG reads at most 0.25.
On to IMPA, for which the enrichment ratio was at most 0.25.
As to AHAC, the enrichment ratio was at most 0.25.
In the case of AWCI it was at most 0.25.
QILV: the enrichment ratio was at most 0.25.
KMHG: the enrichment ratio was at most 0.25.
In the case of HDMI it was at most 0.25; in that of GHVA, at most 0.25; in that of IDWS, at most 0.25.
Consider QVRL, for which the enrichment ratio is at most 0.25.
For the variant HSFY, the enrichment ratio is at most 0.25.
With KAQW, the enrichment ratio is at most 0.25.
For KQGH, the enrichment ratio is at most 0.25.
On to KMYT, for which the enrichment ratio was at most 0.25.
On to FMMA, for which the enrichment ratio was at most 0.25.
Regarding DRCG, the enrichment ratio is at most 0.25.
In the case of EYVH it was at most 0.25; in that of DTES, at most 0.25.
For the variant YVKI, the enrichment ratio is at most 0.25.
In the case of AYFK it was at most 0.25; in that of VNKH, at most 0.25.
For the variant ADMQ, the enrichment ratio was at most 0.25.
The result for WGKC reads at most 0.25; that for YWVC, at most 0.25; that for GWRS, at most 0.25.
On to PTPW, for which the enrichment ratio was at most 0.25.
For the variant MPGY, the enrichment ratio is at most 0.25.
In the case of FPTP it was at most 0.25; in that of PMWR, at most 0.25.
Regarding QYVD, the enrichment ratio is at most 0.25.
For TAFS, the enrichment ratio is 1.14.
Turning to IFWE, the enrichment ratio is at most 0.25.
The result for HHYP reads at most 0.25; that for LPTY, at most 0.25; that for MPII, at most 0.25.
In the case of QGGC it was 19.5; in that of KRYM, at most 0.25.
The result for PNCR reads at most 0.25.
With FWSM, the enrichment ratio is at most 0.25.
Consider TLME, for which the enrichment ratio was at most 0.25.
The result for NIFP reads at most 0.25; that for GDGC, at most 0.25.
On to HDMV, for which the enrichment ratio was at most 0.25.
ESII: the enrichment ratio was at most 0.25.
The result for ELVP reads at most 0.25; that for NTGP, at most 0.25; that for YANH, at most 0.25.
In the case of NKFQ it was at most 0.25; in that of ASSP, at most 0.25; in that of AYPW, at most 0.25.
Turning to VCPD, the enrichment ratio was at most 0.25.
On to IKSQ, for which the enrichment ratio was at most 0.25.
The result for YMSS reads at most 0.25.
Regarding NKIL, the enrichment ratio is at most 0.25.
With GYII, the enrichment ratio was determined as 0.285.
In the case of EMHN it was at most 0.25; in that of SDHD, at most 0.25.
